Some of the results follow.
Target: no compound (DMSO)
Assay: log2 fold change of degron read counts, EGFP-low vs EGFP+ sorted cells; higher = lower degron-EGFP level without compound (poor expression or instability)
Conditions: compound: DMSO control; 18 h
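Further: jurkat cells carrying a lentiviral library of mutant zinc finger degrons fused to EGFP plus mCherry, mCherry+ cells FACS sorted, degron abundance counted by next-generation sequencing.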

| Sequence | log2 fold change of degron read counts |
| --- | --- |
| FFCNVCGARFTQKGNLLRHIKL | -0.52 |
| FACPICGAKFTQKGNLLRHIKL | -0.855 |
| FRCPICGRDFTQKGNLLRHIKL | -0.687 |
| FQCDVCGAEFTQKGNLLRHIKL | -2.72 |
| LRCEICGFGCTQKGNLLRHIKL | -0.0919 |
| FGCEQCGAKFTQKGNLLRHIKL | -1.2 |
| FWCNQCGRVFTQKGNLLRHIKL | 1.21 |
| FWCEICGRWFTQKGNLLRHIKL | 1.63 |
| LICEICGFKCTQKGNLLRHIKL | -0.678 |
| FMCEICGRGFTQKGNLLRHIKL | -1.46 |
| FWCEICGHKFTQKGNLLRHIKL | -1.19 |
| FVCDVCGACFTQKGNLLRHIKL | -1.58 |
| FTCEVCGAQFTQKGNLLRHIKL | -2.34 |
| FVCDVCGAGFTQKGNLLRHIKL | -1.45 |
| FRCEVCGADFTQKGNLLRHIKL | -1.35 |
| FACSVCGHTFTQKGNLLRHIKL | -0.566 |
| LFCPICGFGCTQKGNLLRHIKL | 1.4 |
| FWCPQCGALFTQKGNLLRHIKL | 1.13 |
| FGCPICGAVFTQKGNLLRHIKL | -0.323 |
| FMCNQCGHSFTQKGNLLRHIKL | -1.05 |
| FACEICGASFTQKGNLLRHIKL | -1.57 |
| FECEICGHCFTQKGNLLRHIKL | -1.46 |
| LACPICGFYCTQKGNLLRHIKL | 1.92 |
| FICSVCGHNFTQKGNLLRHIKL | -0.958 |
| FSCNVCGACFTQKGNLLRHIKL | -1.05 |

| Sequence | log2 fold change of degron read counts |
| --- | --- |
| FICEVCGASFTQKGNLLRHIKL | -1.75 |
| FMCEQCGATFTQKGNLLRHIKL | -1.71 |
| FCCEVCGAHFTQKGNLLRHIKL | -1.52 |
| FDCNQCGADFTQKGNLLRHIKL | 0.293 |
| FVCPQCGAIFTQKGNLLRHIKL | 0.11 |
| FDCPICGHQFTQKGNLLRHIKL | -1.44 |
| FSCNQCGAHFTQKGNLLRHIKL | -0.164 |
| LHCNQCGFNCTQKGNLLRHIKL | 0.733 |
| FYCEICGARFTQKGNLLRHIKL | -1.16 |
| FMCEICGACFTQKGNLLRHIKL | -1.59 |
| FKCNVCGARFTQKGNLLRHIKL | -1.27 |
| FMCNICGAVFTQKGNLLRHIKL | 0.199 |
| FECPQCGAKFTQKGNLLRHIKL | -1.83 |
| FACPQCGANFTQKGNLLRHIKL | -4.6 |
| FLCPVCGARFTQKGNLLRHIKL | 0.286 |
| LCCNQCGFVCTQKGNLLRHIKL | 0.494 |
| FCCPVCGATFTQKGNLLRHIKL | -0.256 |
| FCCDQCGARFTQKGNLLRHIKL | -0.781 |
| FCCEICGHCFTQKGNLLRHIKL | -1.4 |
| FHCDICGAMFTQKGNLLRHIKL | -1.76 |
| FGCDICGASFTQKGNLLRHIKL | -1.57 |
| FDCNQCGRRFTQKGNLLRHIKL | -0.0328 |
| FICSVCGHEFTQKGNLLRHIKL | -1.61 |
| FLCPQCGANFTQKGNLLRHIKL | -1.69 |
| FDCNQCGRAFTQKGNLLRHIKL | -0.497 |
